Consider 2 molecules from patent US20260146097A1 (TENTARIX BIOTHERAPEUTICS, published 2026).

Experiment [1] deals with T1, IL2Rs (IL2Rgamma/IL2Rbeta) on preactivated human PBMCs / CD8+ T cells (human, UniProt P14784 27-551; P31785 23-369).
T1 sequence (looked up) 1: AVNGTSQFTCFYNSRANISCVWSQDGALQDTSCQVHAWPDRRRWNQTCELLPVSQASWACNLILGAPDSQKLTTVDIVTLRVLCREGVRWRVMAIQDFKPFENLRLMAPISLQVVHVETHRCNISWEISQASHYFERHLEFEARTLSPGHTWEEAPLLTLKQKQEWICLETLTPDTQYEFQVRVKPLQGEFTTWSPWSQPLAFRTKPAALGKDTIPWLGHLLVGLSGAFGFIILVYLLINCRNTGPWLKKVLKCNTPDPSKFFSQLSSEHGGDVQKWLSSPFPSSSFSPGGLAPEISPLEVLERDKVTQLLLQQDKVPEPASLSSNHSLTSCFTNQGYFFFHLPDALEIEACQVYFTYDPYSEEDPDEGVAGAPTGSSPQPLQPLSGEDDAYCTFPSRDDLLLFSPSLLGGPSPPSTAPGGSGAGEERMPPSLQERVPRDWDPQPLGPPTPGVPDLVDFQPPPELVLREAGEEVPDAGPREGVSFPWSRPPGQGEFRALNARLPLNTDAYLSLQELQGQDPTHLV
T1 sequence (looked up) 2: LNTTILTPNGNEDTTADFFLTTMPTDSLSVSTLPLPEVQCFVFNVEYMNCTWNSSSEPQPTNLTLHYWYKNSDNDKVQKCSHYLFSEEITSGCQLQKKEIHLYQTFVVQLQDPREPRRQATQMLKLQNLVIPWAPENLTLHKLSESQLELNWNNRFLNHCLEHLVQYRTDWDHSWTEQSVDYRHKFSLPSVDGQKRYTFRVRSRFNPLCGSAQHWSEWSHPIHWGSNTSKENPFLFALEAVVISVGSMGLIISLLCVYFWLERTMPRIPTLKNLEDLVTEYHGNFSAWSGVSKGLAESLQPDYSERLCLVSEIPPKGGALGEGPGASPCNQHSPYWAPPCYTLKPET
In words: cell-based or functional assay.

In experiment [2] the target is T1, IL2Rs (IL2Rgamma/IL2Rbeta) on …. The experiment in a line: cell-based or functional assay. The source holds these as a separate data set.

Where a chain is given by its changes, count along the chain named.

B1: TNRX-257 (other)
heavy 1: EVQLVESGGGVVRPGGSLRLSCCASGFTFDDYGMSWVRRAPGKGLEWVAGINWNGGSTGYADSVKGRFTISRDNEKNCLYLQMNSLRAEDTALYHCASATSGTAFDIWGQGTMVTVSSPPGGEVQLVQSGAEVKKPGACVKISCKVSGYTFTRYYMHWVQRAPGKGLEWIGLVDPEDGETIYAEKFQGRVTITADTSTDTAYMELCSLRSEDTAVYYCATDFVKLDFSLSFQHWGQGTLVTVSSPPGGQGQGGQGGGQGGGQVQLVESGGGVVQPGRSLRLSCAASGFTFSSYGMHWVRQAPGKGLEWVAVIWYDGSNKYYADSVKGRFTISRDNSKNTLYLQMNSLRAEDTAVYYCAREWAVASWDYGMDVWGQGTTVTVSSASTKGPSVFPLAPSSKSTSGGTAALGCLVKDYFPEPVTVSWNSGALTSGVHTFPAVLQSSGLYSLSSVVTVPSSSLGTQTYICNVNHKPSNTKVDKKVEPKSCDKTHTCPPCPAPEAAGGPSVFLFPPKPKDTLMISRTPEVTCVVVDVSHEDPEVKFNWYVDGVEVHNAKTKPREEQYNSTYRVVSVLTVLHQDWLNGKEYKCAVSNKALPAPIEKTISKAKGQPREPQVYTLPPSREEMTKNQVSLTCLVEGFYPSDIAVEWESNGQPENNYKTTPPVLDSDGSFFLYSDLTVDKSRWQQGNVFSCSVMHEALHNHYTQESLSLSPGK
heavy 2: QVQLVESGGGVVQPGRSLRLSCAASGFTFSSYGMHWVRQAPGKGLEWVAVIWYDGSNKYYADSVKGRFTISRDNSKNTLYLQMNSLRAEDTAVYYCAREWAVASWDYGMDVWGQGTTVTVSSASTKGPSVFPLAPSSKSTSGGTAALGCLVKDYFPEPVTVSWNSGALTSGVHTFPAVLQSSGLYSLSSVVTVPSSSLGTQTYICNVNHKPSNTKVDKKVEPKSCDKTHTCPPCPAPEAAGGPSVFLFPPKPKDTLMISRTPEVTCVVVDVSHEDPEVKFNWYVDGVEVHNAKTKPREEQYNSTYRVVSVLTVLHQDWLNGKEYKCAVSNKALPAPIEKTISKAKGQPREPQVYTLPPSRKKMTKNQVSLTCLVKGFYPSDIAVEWESNGQPENNYKTTPPVLKSDGSFFLYSKLTVDKSRWQQGNVFSCSVMHEALHNHYTQKSLSLSPGK
light: [not shown - about 100 residues][not shown - about 120 residues]
As for B1, the “pSTAT5 on LAG3+ CD8+ T cells compared to LAG3- CD8+ T cells” value in experiment [1] is above 1000 fold. Moreover, in experiment [2], the “pSTAT5 EC50” value was determined as 0.67 nM and the “pSTAT5 EMAX (Mean Fluorescence Intensity)” value was 61000 Mean Fluorescence Intensity.

B2: TNRX-257_GS_AA_KH (other)
heavy 1: EVQLVESGGGVVRPGGSLRLSCCASGFTFDDYGMSWVRRAPGKGLEWVAGINWNGGSTGYADSVKGRFTISRDNEKNCLYLQMNSLRAEDTALYHCASATSGTAFDIWGQGTMVTVSSPPGGEVQLVQSGAEVKKPGACVKISCKVSGYTFTRYYMHWVQRAPGKGLEWIGLVDPEDGETIYAEKFQGRVTITADTSTDTAYMELCSLRSEDTAVYYCATDFVKLDFSLSFQHWGQGTLVTVSSPPGGSGGGGSGGGGSGGQVQLVESGGGVVQPGRSLRLSCAASGFTFSSYGMHWVRQAPGKGLEWVAVIWYDGSNKYYADSVKGRFTISRDNSKNTLYLQMNSLRAEDTAVYYCAREWAVASWDYGMDVWGQGTTVTVSSASTKGPSVFPLAPSSKSTSGGTAALGCLVKDYFPEPVTVSWNSGALTSGVHTFPAVLQSSGLYSLSSVVTVPSSSLGTQTYICNVNHKPSNTKVDKKVEPKSCDKTHTCPPCPAPEAAGGPSVFLFPPKPKDTLMISRTPEVTCVVVDVSHEDPEVKFNWYVDGVEVHNAKTKPREEQYNSTYRVVSVLTVLHQDWLNGKEYKCKVSNKALPAPIEKTISKAKGQPREPQVCTLPPSREEMTKNQVSLWCLVKGFYPSDIAVEWESNGQPENNYKTTPPVLDSDGSFFLYSKLTVDKSRWQQGNVFSCSVMHEALHNHYTQKSLSLSPGK
heavy 2: B1 heavy 2 with A327K, S359C, K361E, K362E, T371S, L373A, K404D, Y412V
light: [not shown - about 100 residues][not shown - about 120 residues]
For the molecule B2, in experiment [2], the “pSTAT5 EC50” value amounted to 0.54 nM and the “pSTAT5 EMAX (Mean Fluorescence Intensity)” value is 62000 Mean Fluorescence Intensity.
